From US20180244730A1 (OXFORD UNIVERSITY INNOVATION, published 2018)

Target: SnoopTag-MBP
Assay: mixing, SDS-PAGE with Coomassie staining

B1: SpyCatcher (designed binder)
chain: not shown
notes: also called pDEST14-SpyCatcher (GenBank JQ478411, Addgene plasmid ID 35044)
  binding result: no binding (tested: 10 µM each)
